Source: PubChem BioAssay AID488969 (Vanderbilt High Throughput Screening Facility, 2010)
Over roughly 110,000 compounds, “z-score” has its median near -0.1; the highest 2% begin near 2. Some of the results follow. The source made the active and inactive calls.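 Rule for the calls: active = z-score in the third read window above 3 or below -3; inactive = the rest.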

target: Metabotropic glutamate receptor 8 (Rattus norvegicus) (UniProt P70579); assay: mGluR8 Gi/Go-coupled signaling modulation – cell-based, rat, thallium flux, HTS, primary screen (AID 488969); conditions: HEK293 rat mGluR8, GIRK (G protein-gated inwardly rectifying potassium channel) thallium flux, FluoZin2; at 10 µM; stronger effect = higher value; submaximal glutamate (EC20) added with thallium
UniProt P70579, sequence (P70579 whole entry, looked up): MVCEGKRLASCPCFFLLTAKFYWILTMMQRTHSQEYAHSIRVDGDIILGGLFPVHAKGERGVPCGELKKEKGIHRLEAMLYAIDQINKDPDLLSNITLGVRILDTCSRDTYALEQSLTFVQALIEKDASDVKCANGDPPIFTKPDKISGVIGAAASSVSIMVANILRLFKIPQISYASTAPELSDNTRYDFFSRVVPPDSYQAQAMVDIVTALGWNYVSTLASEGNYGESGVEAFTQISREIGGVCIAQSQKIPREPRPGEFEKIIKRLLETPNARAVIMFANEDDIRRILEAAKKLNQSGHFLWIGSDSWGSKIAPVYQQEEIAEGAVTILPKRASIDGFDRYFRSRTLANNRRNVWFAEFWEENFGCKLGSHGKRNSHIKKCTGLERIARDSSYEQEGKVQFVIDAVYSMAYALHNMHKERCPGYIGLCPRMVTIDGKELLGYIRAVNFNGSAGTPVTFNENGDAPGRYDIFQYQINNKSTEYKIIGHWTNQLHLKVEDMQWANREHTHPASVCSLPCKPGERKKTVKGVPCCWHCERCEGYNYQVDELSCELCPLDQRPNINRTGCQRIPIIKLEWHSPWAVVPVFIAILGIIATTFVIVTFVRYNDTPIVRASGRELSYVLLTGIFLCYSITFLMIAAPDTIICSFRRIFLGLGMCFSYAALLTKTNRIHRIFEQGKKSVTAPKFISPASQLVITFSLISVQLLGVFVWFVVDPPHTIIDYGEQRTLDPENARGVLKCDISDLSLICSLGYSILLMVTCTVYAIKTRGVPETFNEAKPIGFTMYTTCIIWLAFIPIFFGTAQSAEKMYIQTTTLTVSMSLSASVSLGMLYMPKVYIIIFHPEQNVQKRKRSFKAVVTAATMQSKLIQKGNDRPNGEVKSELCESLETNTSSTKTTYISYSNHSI

SMILES | z-score
CCOc1ccc(OCC(=O)Nc2ccc(OC)cc2)cc1 | -0.476
CCNc1c(C(=O)O)ccc2c1C(=O)c1ccccc1C2=O | -1.03
Cc1ccc(-c2nnc(SCC(=O)N3CCOCC3)nc2-c2ccc(C)cc2)cc1 | -0.549
Cc1ccc(F)cc1NC(=O)c1cccc2nccnc12 | -0.781
COc1ccc(Nc2nc(N)nc(SCc3nnc(C)s3)n2)cc1 | 0.0393
Cc1scc(C(=O)N/N=C/c2ccc(OCC(C)C)cc2)c1C | -0.145
Cc1ccc(S(=O)(=O)Nc2cc(C(C)C)c(O)cc2C)cc1 | -0.907
CCOC(=O)/C(=N\Nc1ccc(Cl)cc1)c1csc(Nc2ccccc2)n1 | -0.206
O=C(Cn1nc(-c2ccccc2)ccc1=O)NCCN1CCN(Cc2ccccc2)CC1 | 0.374
Cc1nn(C)cc1/C=N\NC(=O)c1ccc2c(c1)c(C)c(C)n2Cc1ccccc1 | 0.097
Cc1ccc(Cl)cc1N1CCN(C(=O)Cc2c(C(=O)O)[nH]c3ccccc23)CC1 | -0.139
COC(=O)[C@H](C)NC(=O)Nc1cc(Cl)ccc1C | -0.0399
S=C1Nc2ccccc2Sc2ccc(Cl)cc21 | active: 4.1
Cc1cc(C(=O)Nc2cccnc2)no1 | 0.595
CCc1ccc(-c2nn(-c3ccccc3)cc2C2SCC(=O)N2Cc2ccco2)cc1 (centres undefined) | -0.102
O=C(NCc1ccc(Cl)cc1)c1ccccc1CCc1ccccc1 | -0.799
CCOCCCNCc1cccc(OCc2ccc(F)cc2)c1 | -0.0612
COc1cc(C(=S)N2CCCC2)ccc1O | 0.115
CCC(NC(=O)c1cccc(Cn2cc([N+](=O)[O-])cn2)c1)c1ccc(C(C)C)cc1 (centres undefined) | -0.13
O=C(N/N=C/C=C/c1ccccc1)c1ccccc1Br | -0.846
O=C(c1cc(-c2ccccn2)nc2ccc(Br)cc12)N1CCc2ccccc2C1 | -0.609
CCOC(=O)C(C)Sc1nc2c([nH]c3ccccc32)c(=O)n1C (centres undefined) | -0.158
COc1ccc(-c2cc(C3CC3)nc3sc(C#N)c(N)c23)cc1 | -0.0657

SMILES | z-score
Cc1cc(C)cc(N(CC(=O)NC2CC3CCC2C3)S(C)(=O)=O)c1 (centres undefined) | 0.958
CCCOc1nc(N)c(C#N)c(-c2ccccc2F)c1C#N | -0.0642
O=C(NC1CCCCC1)C1CCN(S(=O)(=O)c2cccc3nsnc23)CC1 | -0.163
O=C(c1ccccc1Cl)N1CCNCC1 | -0.329
CCNC(=O)CN(CCc1ccccc1)S(C)(=O)=O | 0.206
Cc1ccc(C2CC2C(=O)NNC(=S)Nc2ccc(Cl)cc2)cc1 (centres undefined) | active: 4.55
CC1=Nn2c(nnc2-c2ccccn2)SC1 | 0.109
COc1ccc(CSc2n[nH]c(C)n2)cc1[N+](=O)[O-] | -0.15
CCOC(=O)CN1C(=N)N(c2nc(NC(C)C)nc(NC(C)C)n2)CC1=O | -0.192
O=C1CC(c2ccccc2)c2c(O)cc(O)cc2O1 (centres undefined) | -0.0624
CCCNC(=O)c1ccc(CNc2c(N3CCC(C(=O)OCC)CC3)c(=O)c2=O)cc1 | -0.51
O=C(O)CCC1COc2ccccc2O1 (centres undefined) | 0.155
Cc1cccc(/C=N/n2c(-c3cc(-c4ccccc4)n[nH]3)n[nH]c2=S)c1 | -0.282
COC(=O)c1cn(C(=O)c2ccccc2F)nc1N | 0.378
CC1CC(=O)C2=C(C1)Nc1ccccc1SC2c1ccc(F)cc1 (centres undefined) | -0.875
O=C1c2ccccc2C(=O)N1c1cccc(-c2csc(Nc3ccc4c(c3)OCO4)n2)c1 | 0.00893
CCN(CC)c1nc2ccccc2nc1-n1nc(C)cc1C | -0.474
Cc1ccc(CNc2ccc(Cl)cc2[N+](=O)[O-])cc1 | -0.161
Cc1c(/C=N/NC(=O)CNc2ccccc2)c2ccccn2c1C(=O)c1ccc(Cl)cc1 | 0.0396
CCn1cc(C(=O)N2CCn3c(nc4ccccc43)C2)c(=O)c2ccc(C)nc21 | -0.443
O=C(NCc1ccc(F)cc1)C1CCCN(S(=O)(=O)c2cccc3nsnc23)C1 (centres undefined) | 0.929
O=C1NN(c2ccc(F)cc2)C(=O)/C1=C\C=C\c1ccco1 | -0.607
COC(=O)c1ccc(NC(=S)NCCC2=CCCCC2)cc1 | 0.0546

SMILES | z-score
CCOCCCn1c(SCC(=O)Nc2ccc(C(N)=O)cc2)nc2ccccc2c1=O | 0.766
O=C1CN2C(=N1)N(Cc1ccccc1)c1ccccc12 | -0.243
C=CCn1c(N)c(C(=O)NCc2ccco2)sc1=S | 0.688
COc1ccc(S(=O)(=O)N(C)CC(=O)NCc2cccnc2)cc1 | -0.0918
CC(C)(C)c1ccc(OC(=O)Cn2c(C(F)(F)F)nc3ccccc32)cc1 | 1.01
CCCCC(=O)Nc1ccc(F)c(Cl)c1 | 0.611
CCOC(=O)N1CCC(c2cc(=O)n3[nH]cc(C(=O)OC)c3n2)CC1 | -0.352
O=C(NCCCc1ccccc1)c1ccc(Br)o1 | 0.526
CC(C)C(=O)Nc1nnc(CSCc2ccccc2F)s1 | -0.45
Cn1ccnc1SCC(=O)NC1CC1 | -0.316
Cc1c(C(=O)C(=O)N2c3ccc(F)cc3CCC2C)c2ccccc2n1C (centres undefined) | -0.104
CCC1CCc2c([nH]c3ccccc3c2=O)O1 (centres undefined) | -0.126
COc1ccc(Cl)cc1NC(=O)COC(=O)C(CC(C)C)N1C(=O)C2CC=CCC2C1=O (centres undefined) | -0.318
Oc1ccc(Cl)cc1/C=N/c1nc2ccccc2[nH]1 | 1.02
C/C(=C\C(=O)c1ccccc1)Nc1cccc(O)c1 | -0.407
CC(C)C(c1nnnn1C1CCCCC1)N1CCCc2ccccc21 (centres undefined) | -1.25
Cn1nc(C(F)(F)F)c(/C=N/OC(=O)c2ccccc2)c1SCc1ccc(Cl)cc1 | -0.325
O=C(Nc1ccc(Cl)cn1)c1ccc(-c2cc(Cl)ccc2Cl)o1 | -0.144
Cc1ccc(C(=O)COC(=O)CN2C(=O)C3C4CCC(C4)C3C2=O)cc1[N+](=O)[O-] (centres undefined) | -0.0994
CCCOc1ccc(NC(=O)C(=O)NCCCn2ccnc2)cc1 | -0.242
COC(=O)c1ccc(SCC(=O)N2CCC(C)CC2)c([N+](=O)[O-])c1 | -1.09
COc1ccccc1OCC(=O)NNC(=O)c1cnccn1 | 0.0267
Cc1cc(C)nc(-n2nc(C)cc2NC(=O)CNC2CCCCC2)n1 | 0.0283

SMILES | z-score
COc1ccc(-c2c(C)nn(-c3ccccc3)c2N)cc1OC | -0.0127
O=C(CSc1nnnn1-c1ccccc1)Nc1ccc(Cl)cc1 | -0.377
O=C(CSC1c2ccccc2C(=O)N1c1ccccc1)N1CCOCC1 (centres undefined) | 0.895
Nc1cc(C(=O)OCC(=O)NCc2ccco2)ccc1Cl | 0.0196
CCCn1c(NCc2cccc(OC)c2O)nc2ccccc21 | 0.637
Cc1cccc(C)c1NC(=O)CSc1nc(-c2ccco2)cc(C(F)(F)F)n1 | 0.033
CCCN(CCC)C(=O)C1c2ccccc2Oc2ccccc21 | -1.23
Cc1cccc(N=C(N2CCOCC2)P(=O)(N2CCOCC2)N2CCOCC2)c1 | 0.413
CCn1c(C(=O)Nc2ccsc2C(=O)OC)cc2sc(Cl)cc21 | -0.142
Cc1ccccc1-n1c(SCC(=O)N2CCOCC2)nc(O)cc1=O | 0.189
O=C(Cn1c(O)c(/C=C2\C=Nc3ccccc32)sc1=O)Nc1ccc2c(c1)OCO2 | 0.0985
COc1ccc(OCCSc2nnc3c(Cl)cc(Cl)cn23)cc1 | -0.0313
COc1ccccc1-c1cc(C(=O)Nc2cc(C)nn2-c2ccccc2)no1 | -0.127
O=C1CCc2nc3sc4c(c3c(=O)n2N1)CCCC4 | 0.641
Cn1nc(-c2ccc(Cl)cc2)c2cc(C(=O)NCc3ccco3)sc21 | -0.333
Cc1ccc(C23CC4CC(CC(C(=O)N5CCOCC5)(C4)C2)C3)cc1 | 0.66
CC(=O)Oc1ccc2nc(-c3cccs3)oc(=O)c2c1 | -1.1
Cn1c(SCC(=O)n2c3c(c4ccccc42)CCCC3)nnc1-c1ccccc1 | -0.201
Cc1ccc(C(=O)Oc2coc(CSc3nnc(NC(=O)c4cccs4)s3)cc2=O)cc1C | 0.268
CN(C)CCCn1c(-c2ccccc2)nc(=S)c2c1CCCC2 | -0.077
O=C1c2ccccc2C(Nc2ccc3c(c2)OCO3)N1Cc1ccc2c(c1)OCO2 (centres undefined) | -0.761
CC12CCC(C(=O)NCCCn3ccnc3)(OC1=O)C2(C)C (centres undefined) | 0.102
Cc1ccc(S(=O)(=O)N2CCCC(C(=O)NC3=NCCS3)C2)cc1 (centres undefined) | 0.373

SMILES | z-score
COc1ccc(OC)c(C2C3=C(CCCC3=O)Nc3c2c(=O)n(C)c(=O)n3C)c1 (centres undefined) | -0.296
CC(=O)c1cccc(NC(=O)C2CC(c3ccc(F)cc3)=NO2)c1 (centres undefined) | -0.0875
CCOC(=O)c1ccc(-n2c(C)ccc2C)cc1 | -0.201
CCOC(=O)C1=C(C)NC(=O)NC1C1CC=CCC1 (centres undefined) | -0.513
O=C(COc1ccccc1)NCC(=O)Nc1cccc2ccccc12 | 0.0758
COc1ccc(-c2nn(-c3ccccc3)cc2C(=O)n2nnc3ccccc32)cc1 | -0.272
CCCCCn1c(SCC(=O)OCC)nc2cc(C(=O)NCc3ccco3)ccc2c1=O | -0.374
c1ccc(Cc2nn3c(COc4ccccc4)nnc3s2)cc1 | -0.665
O=C(c1ccc(-c2nnc(-c3ccccc3)o2)cc1)N1CCCCCC1 | 0.00936
COc1ccc(OC2C(=O)N(Cc3ccc(F)cc3)C2c2ccc(OC)c(OC)c2)cc1 (centres undefined) | -0.194
CC(C)CCNC(=O)CCC(=O)NNc1nc2ccccc2c2nc(-c3ccccc3)nn12 | 0.521
C/C(=N\Nc1ncc(Cl)cc1Cl)c1ccc(S(=O)(=O)NCc2ccco2)cc1 | -0.286
CCCCCc1c(C)nc(SCC(=O)O)[nH]c1=O | 0.239
Cn1c(SCC(=O)NCC2CCCO2)nnc1-c1ccc(S(=O)(=O)N2CCCC2)cc1 (centres undefined) | -0.000704
COc1ccc(Nc2oc(-c3ccccc3Cl)nc2C#N)cc1 | -0.121
CCOC(=O)C1CCCN(C(=O)c2ccc(C)cc2O)C1 (centres undefined) | -0.218
CCC(C)OC(=O)C(C)Oc1ccc(-c2ccccc2)cc1 (centres undefined) | -0.427
CCNC(=O)CN(c1ccc(Cl)cc1)S(=O)(=O)c1ccccc1 | 0.338
O=S1(=O)C=CC(N2CCOCC2)C1 (centres undefined) | -0.0822
O=C(Nc1ccccc1)N1CCN(c2ccccn2)CC1 | -0.185
Cn1c(SCC(=O)c2ccccc2)nnc1-c1cccnc1 | 0.0309
COc1ccc(C(C)C)cc1S(=O)(=O)Nc1ccccn1 | 0.0145
